In the supplement of paper PMC10369915:
This is one part of the list. No stated cut-off is given here; in the data, active = 3.2 or more and inactive = the rest. Only a few entries rise above the background.

B1: RET_HUMAN_1062 (peptide)
chain: TWIENKLYGMSDPNW
B2: ATP4A_HUMAN_7_YA (peptide)
chain: GMGKAENYELASVEL
B3: RET_HUMAN_981 (peptide)
chain: DNCSEEMYRLMLQCW
B4: SDC4_HUMAN_180 (peptide)
chain: KKKDEGSYDLGKKPI
B5: SH2D3_HUMAN_283_YA (peptide)
chain: ESATHIQYLFEQESF
B6: ROS1_HUMAN_2115_YA (peptide)
chain: DIAKNDAYRKRGEGL
B7: RHG12_HUMAN_243 (peptide)
chain: GRPDSPVYANLQELK
B8: SF3B2_HUMAN_592 (peptide)
chain: TIHGDLYYEGKEFET
B9: ROS1_HUMAN_2334 (peptide)
chain: GKPEGLNYACLTHSG
B10: SFPQ_HUMAN_691 (peptide)
chain: GPGTPAGYGRGREEY
B11: RHG42_HUMAN_870 (peptide)
chain: TGLVPENYVVFLGGG
B12: SET_HUMAN_146_YA (peptide)
chain: FAFDENPYFENKVLS
B13: RET_HUMAN_900_YA (peptide)
chain: FGLSRDVYEEDSAVK
B14: ROR2_HUMAN_646_YA (peptide)
chain: EVAAADAYKLLGNSL
B15: SEPT9_HUMAN_278 (peptide)
chain: KAPVDFGYVGIDSIL
B16: SC6A4_HUMAN_47 (peptide)
chain: SGQISNGYSAVPSPG
B17: RHOU_HUMAN_254 (peptide)
chain: SKSWWKKYCCFVGGG
B18: RHG21_HUMAN_881_YA (peptide)
chain: KTERSKSYDEGLDDA
B19: RIPK1_HUMAN_384_YA (peptide)
chain: KLQDEANYHLAGSRM
B20: RIPK2_HUMAN_474 (peptide)
chain: DLIMKEDYELVSTKP
B21: RL10A_HUMAN_11 (peptide)
chain: KVSRDTLYEAVREVL
B22: SDPR_HUMAN_395_YA (peptide)
chain: EQAQKVRYEGSAALT
B23: REQU_HUMAN_172 (peptide)
chain: DDLDDEDYEEDTPKR
B24: ROA2_HUMAN_331 (peptide)
chain: SRNMGGPYGGGNYGP
B25: AT1A1_HUMAN_260 (peptide)
chain: TARGIVVYTGDRTVM
B26: SHAN1_HUMAN_186 (peptide)
chain: GLKKFLEYVQLGTSD
B27: RPS6KA3_HUMAN_488_YA (peptide)
chain: DVADDGKYVAVVTEL
B28: RGS17_HUMAN_137_YA (peptide)
chain: EEKARMIYEDAISIL
B29: RET_HUMAN_1029 (peptide)
chain: TPSDSLIYDDGLSEE
B30: RON_HUMAN_1353 (peptide)
chain: SALLGDHYVQLPATY
B31: REPS1_HUMAN_288 (peptide)
chain: ITDEQRQYYVNQFKT
B32: RHG42_HUMAN_376 (peptide)
chain: MDGKEPIYTLPAIIS
B33: SCN5A_HUMAN_1495_YA (peptide)
chain: TEEQKKAYNAMKKLG
B34: SCN5A_HUMAN_1494 (peptide)
chain: MTEEQKKYYNAMKKL
B35: SDHA_HUMAN_215 (peptide)
chain: SLRYDTSYFVEYFAL
B36: RHG35_HUMAN_308 (peptide)
chain: ASPEYQDYVYLEGTQ

Biological target: SHP2 C-SH2 domain E139D
Experiment: enrichment score (SH2-bound / input frequency) (ratio); bacterial display of known human phosphotyrosine sites (pTyr-Var adds point mutants) read by sequencing; higher = stronger binding; tyrosines were phosphorylated by kinases first
Conditions: peptide library: Human pTyr
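Further: displayed peptides selected on beads carrying the immobilized SH2 domain, with library peptides lacking any tyrosine serving as negative controls.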

Row | Binder | enrichment score
1 | B1 | inactive: 0.841
2 | B2 | inactive: 0.676
3 | B3 | inactive: 0.931
4 | B4 | inactive: 1.6
5 | B5 | inactive: 0.995
6 | B6 | inactive: 0.755
7 | B7 | inactive: 1.03
8 | B8 | inactive: 0.658
9 | B9 | inactive: 1.72
10 | B10 | inactive: 0.682
11 | B11 | inactive: 0.961
12 | B12 | inactive: 0.718
13 | B13 | inactive: 0.792
14 | B14 | inactive: 0.779
15 | B15 | inactive: 0.831
16 | B16 | inactive: 0.373
17 | B17 | inactive: 1.56
18 | B18 | inactive: 1.18

Row | Binder | enrichment score
19 | B19 | inactive: 0.744
20 | B20 | inactive: 0.806
21 | B21 | inactive: 1.29
22 | B22 | inactive: 0.702
23 | B23 | inactive: 0.798
24 | B24 | inactive: 0.511
25 | B25 | inactive: 0.779
26 | B26 | inactive: 0.978
27 | B27 | inactive: 0.69
28 | B28 | inactive: 0.71
29 | B29 | inactive: 1.25
30 | B30 | inactive: 0.616
31 | B31 | inactive: 0.788
32 | B32 | inactive: 0.912
33 | B33 | inactive: 1.34
34 | B34 | inactive: 0.971
35 | B35 | inactive: 2.17
36 | B36 | inactive: 0.703

Biological target: SHP2 C-SH2 domain wild-type
Experiment: as above
Conditions: peptide library: Human pTyr

Row | Binder | enrichment score
37 | B1 | inactive: 0.737
38 | B2 | inactive: 0.637
39 | B3 | inactive: 0.867
40 | B4 | inactive: 1.77
41 | B5 | inactive: 1.2
42 | B6 | inactive: 0.709
43 | B7 | inactive: 1.51
44 | B8 | inactive: 0.675
45 | B9 | inactive: 2.1
46 | B10 | inactive: 0.583
47 | B11 | inactive: 1.29
48 | B12 | inactive: 0.82
49 | B13 | inactive: 0.923
50 | B14 | inactive: 0.65
51 | B15 | inactive: 0.727
52 | B16 | inactive: 0.442
53 | B17 | inactive: 1.29
54 | B18 | inactive: 1.02

Row | Binder | enrichment score
55 | B19 | inactive: 0.678
56 | B20 | inactive: 0.623
57 | B21 | inactive: 1.24
58 | B22 | inactive: 0.811
59 | B23 | inactive: 0.856
60 | B24 | inactive: 0.529
61 | B25 | inactive: 0.774
62 | B26 | inactive: 0.869
63 | B27 | inactive: 0.646
64 | B28 | inactive: 0.554
65 | B29 | inactive: 1.15
66 | B30 | inactive: 0.587
67 | B31 | inactive: 0.888
68 | B32 | inactive: 0.596
69 | B33 | inactive: 1.03
70 | B34 | inactive: 1.15
71 | B35 | inactive: 2.52
72 | B36 | inactive: 0.66

Biological target: SHP2 N-SH2 domain L43F
Experiment: as above
Conditions: peptide library: Human pTyr

Row | Binder | enrichment score
73 | B1 | inactive: 0.774
74 | B2 | inactive: 0.59
75 | B3 | inactive: 0.875
76 | B4 | inactive: 1.59
77 | B5 | inactive: 0.878
78 | B6 | inactive: 0.68
79 | B7 | inactive: 1.1
80 | B8 | inactive: 0.717
81 | B9 | active: 9.85
82 | B10 | inactive: 0.81
83 | B11 | inactive: 1.37
84 | B12 | inactive: 0.648
85 | B13 | inactive: 0.977
86 | B14 | inactive: 0.696
87 | B15 | inactive: 0.864
88 | B16 | inactive: 0.506
89 | B17 | inactive: 1.2
90 | B18 | inactive: 1.02

Row | Binder | enrichment score
91 | B19 | inactive: 0.641
92 | B20 | inactive: 0.662
93 | B21 | inactive: 1.23
94 | B22 | inactive: 0.716
95 | B23 | inactive: 0.86
96 | B24 | inactive: 0.445
97 | B25 | inactive: 0.64
98 | B26 | inactive: 1.02
99 | B27 | inactive: 0.896
100 | B28 | inactive: 0.618
101 | B29 | inactive: 1.32
102 | B30 | inactive: 0.5
103 | B31 | inactive: 0.672
104 | B32 | inactive: 0.946
105 | B33 | inactive: 1.06
106 | B34 | inactive: 1.18
107 | B35 | inactive: 2.2
108 | B36 | inactive: 0.886

Biological target: SHP2 N-SH2 domain T42A
Experiment: as above
Conditions: peptide library: Human pTyr

Row | Binder | enrichment score
109 | B1 | inactive: 0.571
110 | B2 | inactive: 0.707
111 | B3 | inactive: 0.958
112 | B4 | inactive: 1.37
113 | B5 | inactive: 0.926
114 | B6 | inactive: 0.688
115 | B7 | inactive: 1.12
116 | B8 | inactive: 0.601
117 | B9 | active: 7.18
118 | B10 | inactive: 0.647
119 | B11 | inactive: 0.974
120 | B12 | inactive: 0.698
121 | B13 | inactive: 0.638
122 | B14 | inactive: 0.793
123 | B15 | inactive: 0.838
124 | B16 | inactive: 0.67
125 | B17 | inactive: 1.16
126 | B18 | inactive: 0.942

Row | Binder | enrichment score
127 | B19 | inactive: 0.654
128 | B20 | inactive: 0.713
129 | B21 | inactive: 1.23
130 | B22 | inactive: 0.824
131 | B23 | inactive: 0.978
132 | B24 | inactive: 0.437
133 | B25 | inactive: 0.873
134 | B26 | inactive: 0.975
135 | B27 | inactive: 0.664
136 | B28 | inactive: 0.592
137 | B29 | inactive: 1.2
138 | B30 | inactive: 0.48
139 | B31 | inactive: 0.757
140 | B32 | inactive: 0.946
141 | B33 | inactive: 1.21
142 | B34 | inactive: 1.25
143 | B35 | inactive: 2.1
144 | B36 | inactive: 0.761

Biological target: SHP2 N-SH2 domain T52S
Experiment: as above
Conditions: peptide library: Human pTyr

Row | Binder | enrichment score
145 | B1 | inactive: 0.896
146 | B2 | inactive: 0.648
147 | B3 | inactive: 0.926
148 | B4 | inactive: 1.7
149 | B5 | inactive: 1.04
150 | B6 | inactive: 0.75
151 | B7 | inactive: 1.09
152 | B8 | inactive: 0.661
153 | B9 | active: 6.33
154 | B10 | inactive: 0.636
155 | B11 | inactive: 0.503
156 | B12 | inactive: 0.596
157 | B13 | inactive: 0.871
158 | B14 | inactive: 0.694
159 | B15 | inactive: 0.664
160 | B16 | inactive: 0.596
161 | B17 | inactive: 1.15
162 | B18 | inactive: 1.26

Row | Binder | enrichment score
163 | B19 | inactive: 0.868
164 | B20 | inactive: 0.971
165 | B21 | inactive: 1.42
166 | B22 | inactive: 0.721
167 | B23 | inactive: 0.854
168 | B24 | inactive: 0.64
169 | B25 | inactive: 0.831
170 | B26 | inactive: 1.5
171 | B27 | inactive: 0.898
172 | B28 | inactive: 0.682
173 | B29 | inactive: 0.938
174 | B30 | inactive: 0.641
175 | B31 | inactive: 0.759
176 | B32 | inactive: 0.837
177 | B33 | inactive: 1.23
178 | B34 | inactive: 1.4
179 | B35 | inactive: 2.23
180 | B36 | inactive: 0.717

Biological target: SHP2 N-SH2 domain wild-type
Experiment: as above
Conditions: peptide library: Human pTyr

Row | Binder | enrichment score
181 | B1 | inactive: 0.762
182 | B2 | inactive: 0.66
183 | B3 | inactive: 0.92
184 | B4 | inactive: 1.43
185 | B5 | inactive: 0.961
186 | B6 | inactive: 0.709
187 | B7 | inactive: 1.04
188 | B8 | inactive: 1.02
189 | B9 | inactive: 2.78
190 | B10 | inactive: 0.573
191 | B11 | inactive: 1.08
192 | B12 | inactive: 0.829
193 | B13 | inactive: 0.948
194 | B14 | inactive: 0.627
195 | B15 | inactive: 0.837
196 | B16 | inactive: 0.528
197 | B17 | inactive: 1.9
198 | B18 | inactive: 1.25

Row | Binder | enrichment score
199 | B19 | inactive: 0.618
200 | B20 | inactive: 1.01
201 | B21 | inactive: 1.7
202 | B22 | inactive: 0.815
203 | B23 | inactive: 1.23
204 | B24 | inactive: 0.523
205 | B25 | inactive: 0.839
206 | B26 | inactive: 0.921
207 | B27 | inactive: 0.619
208 | B28 | inactive: 0.539
209 | B29 | inactive: 1
210 | B30 | inactive: 0.566
211 | B31 | inactive: 0.957
212 | B32 | inactive: 0.924
213 | B33 | inactive: 1.17
214 | B34 | inactive: 1.04
215 | B35 | inactive: 2.79
216 | B36 | inactive: 0.805
